{"source": "patent US20090118135A1", "about": "“METHODS AND COMPOUNDS FOR REGULATING APOPTOSIS” (The Burnham Institute, priority 2007, published 2009)", "test_system": "all six anti-apoptotic members of the Bcl-2 family", "test": "FITC-Bid BH3 FPA competition analysis with Bcl-2 family fusion proteins", "type": "binding", "conditions": "100 nM GST-fusion proteins, 5 nM FITC-Bid BH3; result in words", "method": "FIGS. 11A-G are graphs showing the results of competition assays using a fluorescence polarization assay with the green tea compound epigallecatechin (EGCG) and various Bcl-2 family proteins. 100 nM of GST-Bcl-2 fusion proteins were incubated with various concentrations of EGCG or control compound ECG (“C”) for 2 min in PBS in 50 μl. 5 nM FITC-Bid BH3 peptide was added to bring the final volume to 100 μl and the final DMSO concentration to 1%. Fluorescence polarization was measured after 20 min.\nA FPA was performed to determine the binding affinity of FITC-Bid BH3 peptide to Bcl-2 proteins. Serial concentrations of Bcl-2 proteins were incubated with 5 nM FITC-Bid BH3 peptide (FITC-Ahx-[…]; SEQ ID NO: 55) in PBS using a 96 well black plate (Greiner bio-one). […] IC50 determinations were performed using GraphPad Prism software (GraphPad, Inc., San Diego, Calif.). […] Fluorescence polarization was measured after 10 min. Compounds that reduced the fluorescence polarization by 50% were considered hits.\nThe green tea compound epigallecatechin (EGCG) is known to bind both Bcl-2 and Bcl-XL (Leone et al., Cancer Res. 63:8118-8121, 2003). The ability of EGCG to compete with FITC-Bid BH3 peptide was analyzed by FPA using the protocol described above. […]", "data": [{"smiles": "O=C(O[C@@H]1Cc2c(O)cc(O)cc2O[C@@H]1c1cc(O)c(O)c(O)c1)c1cc(O)c(O)c(O)c1", "note": "[EGCG, epigallecatechin]", "values": [{"measurement": "competition with FITC-Bid BH3 peptide", "result": "bound to all six anti-apoptotic members of the Bcl-2 family to different extents"}]}]}
